# Experimental data: the supplement of paper PMC8728848
# Some of the results follow.
# B1: BTL (Bryothamnion triquetrum) (protein)
# chain: ADPICGSSGYSCTTPAILTPKSPGSFPSGYSKVIVTGVGGSYSVYIHRPDGFKVYKASEGGCASFGSYSGGGNSEVGKYGSGGTVVAVACK
# What was measured:
# Test in all cases: glycan array binding signal (z-score within array); higher = stronger binding
# Conditions in all cases: glycan notation: IUPAC condensed, linker removed
# [1] = biological target: GlcNAc(b1-3)Gal(b1-3)GalNAc
# Outline: (§1)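 The binding signal is a Z-score computed within each array. Data were drawn from 3228 arrays in the Consortium for Functional Glycomics database, restricted to those with a known protein sequence. Scores were averaged over arrays of the same protein sequence at different concentrations or buffers, and over linkers, and negative values can be taken as non-binding.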
# GlcNAc(b1-3)Gal(b1-4)Glc = biological target: GlcNAc(b1-3)Gal(b1-4)Glc
# Outline: as §1
# [2] = biological target: GlcNAc(b1-3)Gal(b1-4)GlcNAc
# Outline: as §1
# [3] = biological target: GlcNAc(b1-3)Gal(b1-4)GlcNAc(b1-2)Man(a1-3)[GlcNAc(b1-3)Gal(b1-4)GlcNAc(b1-2)Man(a1-6)]Man(b1-4)GlcNAc(b1-4)GlcNAc
# Outline: as §1
# [4] = biological target: GlcNAc(b1-3)Gal(b1-4)GlcNAc(b1-2)Man(a1-3)[GlcNAc(b1-3)Gal(b1-4)GlcNAc(b1-2)Man(a1-6)]Man(b1-4)GlcNAc(b1-4)[Fuc(a1-6)]GlcNAc
# Outline: as §1
# [5] = biological target: GlcNAc(b1-3)Gal(b1-4)GlcNAc(b1-2)[GlcNAc(b1-3)Gal(b1-4)GlcNAc(b1-6)]Man(a1-6)[GlcNAc(b1-3)Gal(b1-4)GlcNAc(b1-2)Man(a1-3)]Man(b1-4)GlcNAc(b1-4)GlcNAc
# Outline: as §1
# [6] = biological target: GlcNAc(b1-3)Gal(b1-4)GlcNAc(b1-3)Gal(b1-4)GlcNAc
# Outline: as §1
# [7] = biological target: GlcNAc(b1-3)Gal(b1-4)GlcNAc(b1-3)Gal(b1-4)GlcNAc(b1-2)Man(a1-3)[GlcNAc(b1-3)Gal(b1-4)GlcNAc(b1-3)Gal(b1-4)GlcNAc(b1-2)Man(a1-6)]Man(b1-4)GlcNAc(b1-4)GlcNAc
# Outline: as §1
# [8] = biological target: GlcNAc(b1-3)Gal(b1-4)GlcNAc(b1-3)Gal(b1-4)GlcNAc(b1-2)Man(a1-3)[GlcNAc(b1-3)Gal(b1-4)GlcNAc(b1-3)Gal(b1-4)GlcNAc(b1-2)Man(a1-6)]Man(b1-4)GlcNAc(b1-4)[Fuc(a1-6)]GlcNAc
# Outline: as §1
# [9] = biological target: GlcNAc(b1-3)Gal(b1-4)GlcNAc(b1-3)Gal(b1-4)GlcNAc(b1-2)[GlcNAc(b1-3)Gal(b1-4)GlcNAc(b1-3)Gal(b1-4)GlcNAc(b1-6)]Man(a1-6)[GlcNAc(b1-3)Gal(b1-4)GlcNAc(b1-3)Gal(b1-4)GlcNAc(b1-2)Man(a1-3)]Man(b1-4)GlcNAc(b1-4)[Fuc(a1-6)]GlcNAc
# Outline: as §1
# [10] = biological target: GlcNAc(b1-3)Gal(b1-4)GlcNAc(b1-3)Gal(b1-4)GlcNAc(b1-3)Gal(b1-4)GlcNAc(b1-2)Man(a1-3)[GlcNAc(b1-3)Gal(b1-4)GlcNAc(b1-3)Gal(b1-4)GlcNAc(b1-3)Gal(b1-4)GlcNAc(b1-2)Man(a1-6)]Man(b1-4)GlcNAc(b1-4)GlcNAc
# Outline: as §1
# [11] = biological target: GlcNAc(b1-3)Gal(b1-4)GlcNAc(b1-3)Gal(b1-4)GlcNAc(b1-3)Gal(b1-4)GlcNAc(b1-2)Man(a1-3)[GlcNAc(b1-3)Gal(b1-4)GlcNAc(b1-3)Gal(b1-4)GlcNAc(b1-3)Gal(b1-4)GlcNAc(b1-2)Man(a1-6)]Man(b1-4)GlcNAc(b1-4)[Fuc(a1-6)]GlcNAc
# Outline: as §1
# [12] = biological target: GlcNAc(b1-3)Gal(b1-4)GlcNAc(b1-3)Gal(b1-4)GlcNAc(b1-3)Gal(b1-4)GlcNAc(b1-2)[GlcNAc(b1-3)Gal(b1-4)GlcNAc(b1-3)Gal(b1-4)GlcNAc(b1-3)Gal(b1-4)GlcNAc(b1-6)]Man(a1-6)[GlcNAc(b1-3)Gal(b1-4)GlcNAc(b1-3)Gal(b1-4)GlcNAc(b1-3)Gal(b1-4)GlcNAc(b1-2)Man(a1-3)]Man(b1-4)GlcNAc(b1-4)[Fuc(a1-6)]GlcNAc
# Outline: as §1
# [13] = biological target: GlcNAc(b1-3)Gal(b1-4)GlcNAc(b1-3)Gal(b1-4)GlcNAc(b1-3)Gal(b1-4)GlcNAc(b1-3)Gal(b1-4)GlcNAc(b1-2)Man(a1-3)[GlcNAc(b1-3)Gal(b1-4)GlcNAc(b1-3)Gal(b1-4)GlcNAc(b1-3)Gal(b1-4)GlcNAc(b1-3)Gal(b1-4)GlcNAc(b1-2)Man(a1-6)]Man(b1-4)GlcNAc(b1-4)GlcNAc
# Outline: as §1
# [14] = biological target: GlcNAc(b1-3)Gal(b1-4)GlcNAc(b1-3)Gal(b1-4)GlcNAc(b1-3)Gal(b1-4)GlcNAc(b1-3)Gal(b1-4)GlcNAc(b1-2)Man(a1-3)[GlcNAc(b1-3)Gal(b1-4)GlcNAc(b1-3)Gal(b1-4)GlcNAc(b1-3)Gal(b1-4)GlcNAc(b1-3)Gal(b1-4)GlcNAc(b1-2)Man(a1-6)]Man(b1-4)GlcNAc(b1-4)[Fuc(a1-6)]GlcNAc
# Outline: as §1
# [15] = biological target: GlcNAc(b1-3)Gal(b1-4)GlcNAc(b1-3)Gal(b1-4)GlcNAc(b1-3)Gal(b1-4)GlcNAc(b1-3)Gal(b1-4)GlcNAc(b1-2)[GlcNAc(b1-3)Gal(b1-4)GlcNAc(b1-3)Gal(b1-4)GlcNAc(b1-3)Gal(b1-4)GlcNAc(b1-3)Gal(b1-4)GlcNAc(b1-6)]Man(a1-6)[GlcNAc(b1-3)Gal(b1-4)GlcNAc(b1-3)Gal(b1-4)GlcNAc(b1-3)Gal(b1-4)GlcNAc(b1-3)Gal(b1-4)GlcNAc(b1-2)Man(a1-3)]Man(b1-4)GlcNAc(b1-4)[Fuc(a1-6)]GlcNAc
# Outline: as §1
# [16] = biological target: GlcNAc(b1-3)Gal(b1-4)GlcNAc(b1-3)Gal(b1-4)GlcNAc(b1-3)GalNAc
# Outline: as §1
# [17] = biological target: GlcNAc(b1-3)Gal(b1-4)GlcNAc(b1-3)GalNAc
# Outline: as §1
# [18] = biological target: GlcNAc(b1-3)Gal(b1-4)GlcNAc(b1-3)[GlcNAc(b1-3)Gal(b1-4)GlcNAc(b1-3)]GalNAc
# Outline: as §1
# [19] = biological target: GlcNAc(b1-3)Gal(b1-4)GlcNAc(b1-6)[Gal(b1-3)]GalNAc
# Outline: as §1
# [20] = biological target: GlcNAc(b1-3)Gal(b1-4)GlcNAc(b1-6)[GlcNAc(b1-3)Gal(b1-3)]GalNAc
# Outline: as §1
# [21] = biological target: GlcNAc(b1-3)Gal(b1-4)GlcNAc(b1-6)[GlcNAc(b1-3)]Gal(b1-4)GlcNAc
# Outline: as §1
# GlcNAc(b1-3)GalNAc = biological target: GlcNAc(b1-3)GalNAc
# Outline: as §1
# GlcNAc(b1-3)Man = biological target: GlcNAc(b1-3)Man
# Outline: as §1
# [22] = biological target: GlcNAc(b1-3)[GlcNAc(b1-4)][GlcNAc(b1-6)]GlcNAc
# Outline: as §1
# [23] = biological target: GlcNAc(b1-3)[GlcNAc(b1-6)]Gal(b1-4)GlcNAc
# Outline: as §1
# [24] = biological target: GlcNAc(b1-3)[GlcNAc(b1-6)]GalNAc
# Outline: as §1
# [25] = biological target: GlcNAc(b1-4)Gal(b1-4)GlcNAc
# Outline: as §1
# GlcNAc(b1-4)GlcNAc = biological target: GlcNAc(b1-4)GlcNAc
# Outline: as §1
# [26] = biological target: GlcNAc(b1-4)GlcNAc(b1-4)GlcNAc
# Outline: as §1
# [27] = biological target: GlcNAc(b1-4)GlcNAc(b1-4)GlcNAc(b1-4)GlcNAc(b1-4)GlcNAc
# Outline: as §1
# [28] = biological target: GlcNAc(b1-4)GlcNAc(b1-4)GlcNAc(b1-4)GlcNAc(b1-4)GlcNAc(b1-4)GlcNAc
# Outline: as §1
# [29] = biological target: GlcNAc(b1-4)[GlcNAc(b1-6)]GalNAc
# Outline: as §1
# [30] = biological target: GlcNAc(b1-6)Gal(b1-4)GlcNAc
# Outline: as §1
# GlcNAc(b1-6)GalNAc = biological target: GlcNAc(b1-6)GalNAc
# Outline: as §1
# [31] = biological target: GlcNAc6S(b1-3)Gal(b1-4)GlcNAc
# Outline: as §1
# Kdn(a2-3)Gal(b1-3)GalNAc = biological target: Kdn(a2-3)Gal(b1-3)GalNAc
# Outline: as §1
# Kdn(a2-3)Gal(b1-3)GlcNAc = biological target: Kdn(a2-3)Gal(b1-3)GlcNAc
# Outline: as §1
# Kdn(a2-3)Gal(b1-4)Glc = biological target: Kdn(a2-3)Gal(b1-4)Glc
# Outline: as §1
# Kdn(a2-3)Gal(b1-4)GlcNAc = biological target: Kdn(a2-3)Gal(b1-4)GlcNAc
# Outline: as §1
# [32] = biological target: Kdn(a2-3)Gal(b1-4)[Fuc(a1-3)]GlcNAc
# Outline: as §1
# Kdn(a2-6)Gal(b1-4)GlcNAc = biological target: Kdn(a2-6)Gal(b1-4)GlcNAc
# Outline: as §1
# [33] = biological target: Man(a1-2)Man(a1-2)Man(a1-3)Man
# Outline: as §1
# [34] = biological target: Man(a1-2)Man(a1-2)Man(a1-6)[Man(a1-3)]Man
# Outline: as §1
# Man(a1-2)Man(a1-3)Man = biological target: Man(a1-2)Man(a1-3)Man
# Outline: as §1
binder,measurement,setting,value
B1,glycan array binding signal (z-score),[1],-0.182
same,glycan array binding signal (z-score),GlcNAc(b1-3)Gal(b1-4)Glc,-0.278
same,glycan array binding signal (z-score),[2],-0.247
same,glycan array binding signal (z-score),[3],-0.193
same,glycan array binding signal (z-score),[4],3.45
same,glycan array binding signal (z-score),[5],-0.329
same,glycan array binding signal (z-score),[6],-0.249
same,glycan array binding signal (z-score),[7],-0.105
same,glycan array binding signal (z-score),[8],4.09
same,glycan array binding signal (z-score),[9],2.68
same,glycan array binding signal (z-score),[10],-0.185
same,glycan array binding signal (z-score),[11],3.85
same,glycan array binding signal (z-score),[12],2.31
same,glycan array binding signal (z-score),[13],-0.137
same,glycan array binding signal (z-score),[14],3.86
same,glycan array binding signal (z-score),[15],2.37
same,glycan array binding signal (z-score),[16],-0.209
same,glycan array binding signal (z-score),[17],-0.117
same,glycan array binding signal (z-score),[18],-0.194
same,glycan array binding signal (z-score),[19],-0.146
same,glycan array binding signal (z-score),[20],-0.269
same,glycan array binding signal (z-score),[21],-0.269
same,glycan array binding signal (z-score),GlcNAc(b1-3)GalNAc,-0.271
same,glycan array binding signal (z-score),GlcNAc(b1-3)Man,-0.242
same,glycan array binding signal (z-score),[22],-0.299
same,glycan array binding signal (z-score),[23],-0.304
same,glycan array binding signal (z-score),[24],-0.246
same,glycan array binding signal (z-score),[25],-0.205
same,glycan array binding signal (z-score),GlcNAc(b1-4)GlcNAc,-0.273
same,glycan array binding signal (z-score),[26],-0.21
same,glycan array binding signal (z-score),[27],-0.153
same,glycan array binding signal (z-score),[28],-0.274
same,glycan array binding signal (z-score),[29],-0.269
same,glycan array binding signal (z-score),[30],-0.23
same,glycan array binding signal (z-score),GlcNAc(b1-6)GalNAc,-0.24
same,glycan array binding signal (z-score),[31],-0.236
same,glycan array binding signal (z-score),Kdn(a2-3)Gal(b1-3)GalNAc,-0.259
same,glycan array binding signal (z-score),Kdn(a2-3)Gal(b1-3)GlcNAc,-0.261
same,glycan array binding signal (z-score),Kdn(a2-3)Gal(b1-4)Glc,-0.28
same,glycan array binding signal (z-score),Kdn(a2-3)Gal(b1-4)GlcNAc,-0.282
same,glycan array binding signal (z-score),[32],-0.289
same,glycan array binding signal (z-score),Kdn(a2-6)Gal(b1-4)GlcNAc,-0.177
same,glycan array binding signal (z-score),[33],-0.275
same,glycan array binding signal (z-score),[34],-0.238
same,glycan array binding signal (z-score),Man(a1-2)Man(a1-3)Man,-0.268
